Data published in PMC8496693.
Results are given in words; binding and its absence hold for the method and conditions named. In cells and extracts the contact can be indirect. Sequences can lack the tags named with a protein.

Molecular target: EGFP-PDE6D (human) (UniProt O43924)
Assay: co-IP; visible immunoprecipitation (VIP) assay followed by immunoblotting (anti-mChe, anti-GFP); lysates of HEK293T cells coexpressing two fluorescent fusion proteins; EGFP fusion precipitated with GST-fused anti-GFP nanobody prebound to glutathione-Sepharose beads; lysis buffer 50 mM HEPES pH 7.4, 100 mM KCl, 1 mM DTT, 5 mM NaCl, 3 mM MgCl2, 0.5% Triton X100, 10% glycerol

B1: mChe-fused INPP5E(1-626) (domain or fragment, UniProt Q9NRR6 1-626)
chain: MPSKAENLRPSEPAPQPPEGRTLQGQLPGAPPAQRAGSPPDAPGSESPALACSTPATPSGEDPPARAAPIAPRPPARPRLERALSLDDKGWRRRRFRGSQEDLEARNGTSPSRGSVQSEGPGAPAHSCSPPCLSTSLQEIPKSRGVLSSERGSPSSGGNPLSGVASSSPNLPHRDAAVAGSSPRLPSLLPPRPPPALSLDIASDSLRTANKVDSDLADYKLRAQPLLVRAHSSLGPGRPRSPLACDDCSLRSAKSSFSLLAPIRSKDVRSRSYLEGSLLASGALLGADELARYFPDRNVALFVATWNMQGQKELPPSLDEFLLPAEADYAQDLYVIGVQEGCSDRREWETRLQETLGPHYVLLSSAAHGVLYMSLFIRRDLIWFCSEVECSTVTTRIVSQIKTKGALGISFTFFGTSFLFITSHFTSGDGKVAERLLDYTRTVQALVLPRNVPDTNPYRSSAADVTTRFDEVFWFGDFNFRLSGGRTVVDALLCQGLVVDVPALLQHDQLIREMRKGSIFKGFQEPDIHFLPSYKFDIGKDTYDSTSKQRTPSYTDRVLYRSRHKGDICPVSYSSCPGIKTSDHRPVYGLFRVKVRPGRDNIPLAAGKFDRELYLLGIKRRISKEI
For B1, the binding was “no binding”.
